These results are taken from paper PMC4336329 (PLoS ONE, 2015).

Structures are written as SMILES. Hit rate of the full screen: of about 310,000 compounds, about 14,000 (4.5%) showed an effect of 50% or more. Effects have a minus sign here. This is one part of the list.
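Further: peak tail current of the secondary pulse compared with the same well before compound.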

human ether-à-go-go-related gene (hERG) potassium channel, sequence (Q12809 whole entry, looked up): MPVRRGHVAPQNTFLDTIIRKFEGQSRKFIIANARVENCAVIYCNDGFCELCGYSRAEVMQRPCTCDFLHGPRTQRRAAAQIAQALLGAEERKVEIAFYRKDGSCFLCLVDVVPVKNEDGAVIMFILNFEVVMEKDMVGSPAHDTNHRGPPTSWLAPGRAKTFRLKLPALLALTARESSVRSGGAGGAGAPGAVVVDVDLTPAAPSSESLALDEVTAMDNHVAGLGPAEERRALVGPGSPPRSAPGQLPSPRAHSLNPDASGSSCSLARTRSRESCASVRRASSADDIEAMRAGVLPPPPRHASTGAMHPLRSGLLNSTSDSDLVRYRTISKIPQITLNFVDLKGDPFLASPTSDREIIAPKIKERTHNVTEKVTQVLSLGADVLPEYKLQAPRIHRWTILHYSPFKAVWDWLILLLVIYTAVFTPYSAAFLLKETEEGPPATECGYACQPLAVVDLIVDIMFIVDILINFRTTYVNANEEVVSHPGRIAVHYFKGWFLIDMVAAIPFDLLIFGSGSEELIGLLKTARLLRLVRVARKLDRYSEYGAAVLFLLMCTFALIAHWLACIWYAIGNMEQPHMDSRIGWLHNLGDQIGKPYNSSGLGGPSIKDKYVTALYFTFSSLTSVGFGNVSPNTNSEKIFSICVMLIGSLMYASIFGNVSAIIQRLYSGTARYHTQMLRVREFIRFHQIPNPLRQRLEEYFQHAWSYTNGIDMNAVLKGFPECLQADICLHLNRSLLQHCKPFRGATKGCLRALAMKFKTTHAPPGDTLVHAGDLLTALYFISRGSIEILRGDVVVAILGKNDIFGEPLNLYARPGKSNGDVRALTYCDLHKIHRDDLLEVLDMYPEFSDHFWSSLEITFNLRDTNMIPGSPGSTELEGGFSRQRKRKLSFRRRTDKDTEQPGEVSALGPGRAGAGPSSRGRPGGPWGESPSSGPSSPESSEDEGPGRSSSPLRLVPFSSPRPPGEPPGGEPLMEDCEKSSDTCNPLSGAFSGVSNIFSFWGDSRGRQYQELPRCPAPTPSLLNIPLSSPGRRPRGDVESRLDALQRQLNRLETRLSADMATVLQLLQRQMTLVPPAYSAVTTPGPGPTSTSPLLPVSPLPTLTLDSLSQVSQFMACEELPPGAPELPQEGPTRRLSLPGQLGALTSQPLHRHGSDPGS

The experiment concerns the target human ether-à-go-go-related gene (hERG) potassium channel (human, UniProt Q12809). Nature of the experiment: primary screen, population patch clamp on CHO cells stably expressing hERG.
For the molecule `CC(C)NC(=O)c1cnn2c1NC(c1cccs1)CC2C(F)(F)F` (stereo not drawn), the “hERG current change (%, negative = inhibition) at 10uM” value was 17%. In the case of `COc1ccc(CNC(=O)C2CC(c3ccc(C(F)(F)F)cc3)=NO2)cc1` (stereo not drawn) it was 7.34%; in that of `O=S(=O)(c1ccccc1)c1cnn2c(C(F)(F)F)cc(-c3ccc(F)cc3)nc12`, -8.47%; in that of `CCc1ccc(C2C3=C(CC(C)(C)CC3=O)Nc3c2c(=O)[nH]c2nc(C)nn32)cc1` (stereo not drawn), 16.1%. Turning to `NC(=S)Nc1ccc2c(c1)OCO2`, the “hERG current change (%, negative = inhibition) at 10uM” value is given as 15.6%.

Take `CC(C)CC(NC(=O)c1ccco1)C(=O)Nc1ccc2c(c1)OCCO2` (stereo not drawn): the “hERG current change (%, negative = inhibition) at 10uM” value is given as -0.517%. Take `COC(=O)C(NC(=O)c1ccccc1)c1ccccc1` (stereo not drawn): the “hERG current change (%, negative = inhibition) at 10uM” value is given as 5.97%. `COc1ccccc1OCCCn1c(=O)oc2ccccc21`: the “hERG current change (%, negative = inhibition) at 10uM” value was -6.19%. In the case of `CC(C)C(=O)NCC(c1ccc2c(c1)OCO2)N1CCOCC1` (stereo not drawn) it was 11.3%. Regarding `CC(C)c1ccc(OCC(=O)NC2CC(C)(C)NC(C)(C)C2)c(Br)c1`, the “hERG current change (%, negative = inhibition) at 10uM” value is on record as -34%. Turning to `Cc1ccc(NC(=S)N(Cc2ccccc2)C(C)C)cc1`, the “hERG current change (%, negative = inhibition) at 10uM” value was 12%. In the case of `COc1ccc(S(=O)(=O)Nc2nnc(CC(C)C)s2)cc1` it was -8.48%; in that of `O=C1COc2ccc(NC(=O)N3CCN(c4ccc(F)cc4)CC3)cc2N1`, -79.8%. On to `Cc1ccc(NC(=O)COc2coc(CN3CCN(c4ccccc4)CC3)cc2=O)cc1`, for which the “hERG current change (%, negative = inhibition) at 10uM” value was determined as 1.7%. Turning to `Cc1cccc(C(=O)NCCCNC(=O)c2cccnc2)c1`, the “hERG current change (%, negative = inhibition) at 10uM” value is given as 4.33%. Take `CC1CN(CC(=O)Nc2nc(-c3ccc(Cl)cc3)cs2)CC(C)O1` (stereo not drawn): the “hERG current change (%, negative = inhibition) at 10uM” value is listed as -27.6%. In the case of `CSc1ccc(CN(C)CC(=O)Nc2cccc(Br)c2)cc1` it was -1.24%; in that of `COc1cc(NS(=O)(=O)c2ccccc2)ccc1-n1nc(C)cc1C`, 2.82%; in that of `COc1cc(NC2=CC(=O)CC(C)(C)C2)cc(OC)c1`, 6.65%. With `COc1ccc(CNC(=O)NC(C)(C)c2cccc(C(C)(C)NC(=O)NCc3ccc(OC)cc3)c2)cc1`, the “hERG current change (%, negative = inhibition) at 10uM” value came to 1.7%. The same measure for `COc1ccc(Br)c(-c2nnc(CS(=O)(=O)c3ccccc3)o2)c1`: -29.3%. As to `O=C(Nc1cccc(S(=O)(=O)NC2=NCCC2)c1)c1ccccc1OC(F)F`, the “hERG current change (%, negative = inhibition) at 10uM” value is -3.52%.

`COc1ccc(-c2nn(CC(=O)N(C)C)c(=O)c3ccccc23)cc1`: the “hERG current change (%, negative = inhibition) at 10uM” value is recorded as -18.5%. For `COc1ccc(NC(=O)Nc2nnc(Cc3ccc(OC)c(OC)c3)s2)cc1`, the “hERG current change (%, negative = inhibition) at 10uM” value amounted to 20.7%. On to `Cc1cccc(Cc2cnc(NC(=O)C3=NCCN3)s2)c1`, for which the “hERG current change (%, negative = inhibition) at 10uM” value is recorded as 7.23%. In the case of `CCOc1ccccc1N(CC(=O)NCc1ccco1)C(=O)CCC(=O)Nc1nccs1` it was -2.82%; in that of `CCn1nc(NS(=O)(=O)c2cccc3nonc23)c2cc3ccc(C)cc3nc21`, 2.62%; in that of `COc1ccc(S(=O)(=O)N2CCNC(=O)C2)cc1Br`, 11%. As to `Cc1cccc(NC(=O)CSCC(=O)Nc2cc(S(=O)(=O)N3CCOCC3)ccc2N2CCCC2)c1`, the “hERG current change (%, negative = inhibition) at 10uM” value is on record as -10.5%. Consider `CCCC1NC(C(=O)O)Cc2c1[nH]c1ccccc21` (stereo not drawn), for which the “hERG current change (%, negative = inhibition) at 10uM” value is given as 6.71%. Take `CCc1ccccc1NS(=O)(=O)c1cccc2nsnc12`: the “hERG current change (%, negative = inhibition) at 10uM” value was -14.9%. Take `Cc1cc(OCCCC(=O)NCCc2ccccn2)ccc1Cl`: the “hERG current change (%, negative = inhibition) at 10uM” value is on record as 3.2%. The same measure for `Cc1ccccc1C(=O)Nc1ccc(C(=O)N/N=C/c2ccccn2)cc1`: 3.91%; for `O=C(OCc1ccccc1)C1=NNC2C(=O)N(c3ccccc3)C(=O)C12` (stereo not drawn): 1.21%; for `CCN1CCN(c2cc(C)c3cc(NC(=O)c4cncc(Br)c4)ccc3n2)CC1`: -51.8%. For the molecule `O=C(Nc1ccccc1C(F)(F)F)N1CCN(c2ccc3nnc(-c4ccc(F)cc4)n3n2)CC1`, the “hERG current change (%, negative = inhibition) at 10uM” value is -65.9%.

Consider `CC1(C)CC2CC(C)(CN2S(=O)(=O)c2cccc(C(=O)OCC(=O)NC(N)=O)c2)C1` (stereo not drawn), for which the “hERG current change (%, negative = inhibition) at 10uM” value was -57.1%. Take `COc1ccccc1-c1cc(C(=O)O)c2c(=O)n(C)c(=O)n(Cc3ccccc3)c2n1`: the “hERG current change (%, negative = inhibition) at 10uM” value was 16.7%.

In the case of `Cc1cc(Br)ccc1SCC(=O)OCC(=O)NC1CCCC1`, the “hERG current change (%, negative = inhibition) at 10uM” value was found to be 7.59%. Take `COc1cnn(-c2cccc(C(F)(F)F)c2)c(=O)c1Cl`: the “hERG current change (%, negative = inhibition) at 10uM” value is 3.08%. Consider `CC(=O)Oc1ccc2c(C)c(CC(=O)N3CCN(C(=O)C4COc5ccccc5O4)CC3)c(=O)oc2c1C` (stereo not drawn), for which the “hERG current change (%, negative = inhibition) at 10uM” value is -69.6%. In the case of `CC(C)CN(CC(C)C)S(=O)(=O)N1CCC(C(=O)NCCN2CCOCC2)CC1` it was 19.5%; in that of `CC(C)NS(=O)(=O)c1ccc(CCC(=O)NCc2ccccn2)cc1`, 14.7%. With `O=c1[nH]c2ccccc2cc1-c1nnn(-c2ccccc2)n1`, the “hERG current change (%, negative = inhibition) at 10uM” value was -3.03%. As to `O=C(Cc1ccccc1)Nc1ccc(NC(=O)c2ccco2)cc1`, the “hERG current change (%, negative = inhibition) at 10uM” value came to 22%. As to `COc1ccc(C)c2sc(N(CCCN(C)C)C(=O)c3ccc(S(=O)(=O)N4CCc5ccccc5C4)cc3)nc12.Cl`, the “hERG current change (%, negative = inhibition) at 10uM” value is 9.73%. The same measure for `Cc1occc1C(=O)N/N=C/c1ccc(Br)s1`: 26.4%. For `O=C(Nc1nccs1)c1ccc(Br)c(S(=O)(=O)N2CCOCC2)c1`, the “hERG current change (%, negative = inhibition) at 10uM” value was -16.6%. Regarding `COc1ccc(CC(=O)NCCc2ccc(Cl)cc2Cl)cc1`, the “hERG current change (%, negative = inhibition) at 10uM” value is listed as -1.8%. In the case of `O=C1CCNCCN1[C@H](CO)Cc1ccccc1` it was 9.51%; in that of `CC(C)(C)OC(=O)N/N=C\c1cccnc1`, 27%. Turning to `COc1ccc(-c2nn(CCC#N)cc2C(=O)NCc2ccccc2)cc1`, the “hERG current change (%, negative = inhibition) at 10uM” value is -39.7%. The same measure for `CC(C)OC(=O)NC(Nc1ccccc1C(=O)O)(C(F)(F)F)C(F)(F)F`: 13.1%.

With `O=C(O)c1cc(-c2ccccc2)nc2nc(N3CCCCC3)sc12`, the “hERG current change (%, negative = inhibition) at 10uM” value is recorded as 8.56%. Turning to `COc1ccc(CN(C)C(=O)Cc2ccsc2)c(OC)c1OC`, the “hERG current change (%, negative = inhibition) at 10uM” value is listed as 8.67%. On to `Cc1occc1C(=O)N/N=C/c1c(O)ccc2ccccc12`, for which the “hERG current change (%, negative = inhibition) at 10uM” value came out at 16%. Regarding `O=C(CCNC(=O)c1ccc(Br)cc1)NCc1ccccn1`, the “hERG current change (%, negative = inhibition) at 10uM” value is reported as -8.8%.
